Some of the results follow. Many values rest on one well or one pass, so single values are uncertain.
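Further: cell number obtained by counting DAPI-stained nuclei in high-throughput microscope images with image analysis software, screen run in 1,536-well plates.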

This experiment relates to C32. Description: cell count relative to DMSO control; melanoma cells; higher = more viable cells. The following applies: library dose: low library concentration; 72 h.
On to `CCN(CC)CCNC(=O)c1c(C)[nH]c(/C=C2\C(=O)Nc3ccc(F)cc32)c1C` [sunitinib] + Clc1ccc(Nc2nnc(Cc3ccncc3)c3ccccc23)cc1 [vatalanib] (first compound 0.4 µM, partner dose 2 µM), for which the cell count is 82.6%.
For `COc1cc([C@@H]2c3cc4c(cc3[C@@H](O[C@@H]3O[C@@H]5CO[C@@H](C)O[C@H]5[C@H](O)[C@H]3O)[C@H]3COC(=O)[C@H]23)OCO4)cc(OC)c1O` [etoposide] + Cn1c(Nc2ccc(C(F)(F)F)cc2)nc2cc(Oc3ccnc(-c4ncc(C(F)(F)F)[nH]4)c3)ccc21 [CHIR265] (first compound 0.02 µM, partner dose 0.08 µM), the cell count amounted to 67.7%.
As to `CCN(CC)CCNC(=O)c1c(C)[nH]c(/C=C2\C(=O)Nc3ccc(F)cc32)c1C` [sunitinib] + O=C(O)[C@@H]1[O][Sb](=[O])([O][Sb]2(=[O])[O][C@H]([C@H](O)CO)[C@H](O)[C@H](C(=O)O)[O]2)[O][C@H]([C@H](O)CO)[C@@H]1O [stibogluconate] (first compound 0.4 µM, partner dose 2 µM), the cell count was 77.3%.
On to `COc1cc([C@@H]2c3cc4c(cc3[C@@H](O[C@@H]3O[C@@H]5CO[C@@H](C)O[C@H]5[C@H](O)[C@H]3O)[C@H]3COC(=O)[C@H]23)OCO4)cc(OC)c1O` [etoposide] + Cc1nc(Nc2ncc(C(=O)Nc3c(C)cccc3Cl)s2)cc(N2CCN(CCO)CC2)n1 [dasatanib] (first compound 0.02 µM, partner dose 0.004 µM), for which the cell count was 80.8%.
With `COc1cc([C@@H]2c3cc4c(cc3[C@@H](O[C@@H]3O[C@@H]5CO[C@@H](C)O[C@H]5[C@H](O)[C@H]3O)[C@H]3COC(=O)[C@H]23)OCO4)cc(OC)c1O` [etoposide] + O=c1[nH]nc(Sc2ncc([N+](=O)[O-])s2)n1-c1ccc2c(c1)OCCO2 [BI78D3] (first compound 0.02 µM, partner dose 0.2 µM) the figure was 97.3%.
With `Cn1cnc2c(F)c(Nc3ccc(Br)cc3Cl)c(C(=O)NOCCO)cc21` [selumetinib] + Nc1nc(F)nc2c1ncn2[C@@H]1O[C@H](CO)[C@@H](O)[C@@H]1O [fludarabine] (first compound 0.015 µM, partner dose 0.2 µM) the figure was 85.5%; with `Cn1cnc2c(F)c(Nc3ccc(Br)cc3Cl)c(C(=O)NOCCO)cc21` [selumetinib] + Clc1ccc(Nc2nnc(Cc3ccncc3)c3ccccc23)cc1 [vatalanib] (first compound 0.015 µM, partner dose 2 µM), 98.6%; with `CCN(CC)CCNC(=O)c1c(C)[nH]c(/C=C2\C(=O)Nc3ccc(F)cc32)c1C` [sunitinib] + O=C(O)c1ccc2c(c1)nc(Nc1cccc(Cl)c1)c1ccncc12 [CX4945] (first compound 0.4 µM, partner dose 0.4 µM), 79.2%.
To `C[C@]1(O)C[C@@H](c2nc(-c3ccc4ccc(-c5ccccc5)nc4c3)c3c(N)nccn32)C1` + NC1(c2ccc(-c3nc4ccn5c(=O)[nH]nc5c4cc3-c3ccccc3)cc2)CCC1 [MK2206] (first compound 0.4 µM, partner dose 0.4 µM) belongs 97.3%; to `C[C@]1(O)C[C@@H](c2nc(-c3ccc4ccc(-c5ccccc5)nc4c3)c3c(N)nccn32)C1` + CCCS(=O)(=O)Nc1ccc(F)c(C(=O)c2c[nH]c3ncc(Cl)cc23)c1F [PLX4720] (first compound 0.4 µM, partner dose 0.08 µM), 84.5%.
For the molecule `C[C@]1(O)C[C@@H](c2nc(-c3ccc4ccc(-c5ccccc5)nc4c3)c3c(N)nccn32)C1` + C[C@]1(c2nc3c(C(N)=O)cccc3[nH]2)CCCN1 [Veliparib] (first compound 0.4 µM, partner dose 1.4 µM), the cell count was 81.6%.
To `COc1cc([C@@H]2c3cc4c(cc3[C@@H](O[C@@H]3O[C@@H]5CO[C@@H](C)O[C@H]5[C@H](O)[C@H]3O)[C@H]3COC(=O)[C@H]23)OCO4)cc(OC)c1O` [etoposide] + CN(c1ncccc1CNc1nc(Nc2ccc3c(c2)CC(=O)N3)ncc1C(F)(F)F)S(C)(=O)=O [PF562271] (first compound 0.02 µM, partner dose 0.08 µM) belongs 96.9%; to `C[C@]1(O)C[C@@H](c2nc(-c3ccc4ccc(-c5ccccc5)nc4c3)c3c(N)nccn32)C1` + Clc1ccc(Nc2nnc(Cc3ccncc3)c3ccccc23)cc1 [vatalanib] (first compound 0.4 µM, partner dose 2 µM), 94.7%; to `COc1cc([C@@H]2c3cc4c(cc3[C@@H](O[C@@H]3O[C@@H]5CO[C@@H](C)O[C@H]5[C@H](O)[C@H]3O)[C@H]3COC(=O)[C@H]23)OCO4)cc(OC)c1O` [etoposide] + O=C(O)[C@@H]1[O][Sb](=[O])([O][Sb]2(=[O])[O][C@H]([C@H](O)CO)[C@H](O)[C@H](C(=O)O)[O]2)[O][C@H]([C@H](O)CO)[C@@H]1O [stibogluconate] (first compound 0.02 µM, partner dose 2 µM), 90.3%.
Molecule `CCN(CC)CCNC(=O)c1c(C)[nH]c(/C=C2\C(=O)Nc3ccc(F)cc32)c1C` [sunitinib] + Cn1c(Nc2ccc(C(F)(F)F)cc2)nc2cc(Oc3ccnc(-c4ncc(C(F)(F)F)[nH]4)c3)ccc21 [CHIR265] (first compound 0.4 µM, partner dose 0.08 µM) had a cell count of 74.9%.
Consider `CCN(CC)CCNC(=O)c1c(C)[nH]c(/C=C2\C(=O)Nc3ccc(F)cc32)c1C` [sunitinib] + CNC(=O)c1cc(Oc2ccc(NC(=O)Nc3ccc(Cl)c(C(F)(F)F)c3)cc2)ccn1 [sorafenib] (first compound 0.4 µM, partner dose 0.4 µM), for which the cell count stood at 89.9%.
In the case of `C[C@]1(O)C[C@@H](c2nc(-c3ccc4ccc(-c5ccccc5)nc4c3)c3c(N)nccn32)C1` + C=C(c1ccc(C(=O)O)cc1)c1cc2c(cc1C)C(C)(C)CCC2(C)C [Bexarotene] (first compound 0.4 µM, partner dose 2 µM), the cell count turned out to be 75.3%.
To `CCN(CC)CCNC(=O)c1c(C)[nH]c(/C=C2\C(=O)Nc3ccc(F)cc32)c1C` [sunitinib] + CN(c1ncccc1CNc1nc(Nc2ccc3c(c2)CC(=O)N3)ncc1C(F)(F)F)S(C)(=O)=O [PF562271] (first compound 0.4 µM, partner dose 0.08 µM) belongs 88.1%; to `CCN(CC)CCNC(=O)c1c(C)[nH]c(/C=C2\C(=O)Nc3ccc(F)cc32)c1C` [sunitinib] + NC1(c2ccc(-c3nc4ccn5c(=O)[nH]nc5c4cc3-c3ccccc3)cc2)CCC1 [MK2206] (first compound 0.4 µM, partner dose 0.4 µM), 90.1%; to `Cn1cnc2c(F)c(Nc3ccc(Br)cc3Cl)c(C(=O)NOCCO)cc21` [selumetinib] + CNC(=O)c1cc(Oc2ccc(NC(=O)Nc3ccc(Cl)c(C(F)(F)F)c3)cc2)ccn1 [sorafenib] (first compound 0.015 µM, partner dose 0.4 µM), 87%.
To `Cn1cnc2c(F)c(Nc3ccc(Br)cc3Cl)c(C(=O)NOCCO)cc21` [selumetinib] + Cc1cc(Nc2cc(N3CCN(C)CC3)nc(/C=C/c3ccccc3)n2)n[nH]1 [ENMD2076] (first compound 0.015 µM, partner dose 0.04 µM) belongs 87.5%; to `COc1cc([C@@H]2c3cc4c(cc3[C@@H](O[C@@H]3O[C@@H]5CO[C@@H](C)O[C@H]5[C@H](O)[C@H]3O)[C@H]3COC(=O)[C@H]23)OCO4)cc(OC)c1O` [etoposide] + Nc1nc(F)nc2c1ncn2[C@@H]1O[C@H](CO)[C@@H](O)[C@@H]1O [fludarabine] (first compound 0.02 µM, partner dose 0.2 µM), 93.6%; to `COc1cc([C@@H]2c3cc4c(cc3[C@@H](O[C@@H]3O[C@@H]5CO[C@@H](C)O[C@H]5[C@H](O)[C@H]3O)[C@H]3COC(=O)[C@H]23)OCO4)cc(OC)c1O` [etoposide] + Cn1sc(=O)n(Cc2ccccc2)c1=O [TDZD-8] (first compound 0.02 µM, partner dose 0.4 µM), 95.6%.
`Cn1cnc2c(F)c(Nc3ccc(Br)cc3Cl)c(C(=O)NOCCO)cc21` [selumetinib] + CO[C@H]1C[C@@H]2CC[C@@H](C)[C@@](O)(O2)C(=O)C(=O)N2CCCC[C@H]2C(=O)O[C@H]([C@H](C)C[C@@H]2CC[C@@H](OCCO)[C@H](OC)C2)CC(=O)[C@H](C)/C=C(\C)[C@@H](O)[C@@H](OC)C(=O)[C@H](C)C[C@H](C)/C=C/C=C/C=C/1C [everolimus] (first compound 0.015 µM, partner dose 0.02 µM) yielded a cell count of 87.8%.
The molecule `Cn1cnc2c(F)c(Nc3ccc(Br)cc3Cl)c(C(=O)NOCCO)cc21` [selumetinib] + COc1ccc(C2=N[C@@H](c3ccc(Cl)cc3)[C@@H](c3ccc(Cl)cc3)N2C(=O)N2CCNC(=O)C2)c(OC(C)C)c1 [Nutlin-3] (first compound 0.015 µM, partner dose 0.1 µM) returned a cell count of 100%.
The molecule `C[C@]1(O)C[C@@H](c2nc(-c3ccc4ccc(-c5ccccc5)nc4c3)c3c(N)nccn32)C1` + CN(c1ncccc1CNc1nc(Nc2ccc3c(c2)CC(=O)N3)ncc1C(F)(F)F)S(C)(=O)=O [PF562271] (first compound 0.4 µM, partner dose 0.08 µM) gave a cell count of 76.6%.

Source of the values: the supplement of paper PMC4604168 (melanoma cell lines).
